This assay has as its target Mammalian PARP, isolated from Hela cell nuclear extract (Homo sapiens, UniProt P09874). As to the kind of experiment: PARP inhibitory action assay (FlashPlate, 3H-NAD scintillation). Conditions: PARP enzyme activity, NAD 5 μM, 30° C., 45 minutes.
For the molecule `O=C(c1cccc(Cc2n[nH]c(=O)c3c2CCCC3)c1)N1CCN(C(=O)C2CC2)CC1` [5a], the IC50 stood at 4.8 nM. This counts as single-digit nanomolar. `O=C(c1cccc(Cc2n[nH]c(=O)c3c2CCCC3)c1)N1CCC(N(C2CC2)S(=O)(=O)c2ccc(Cl)cc2)CC1` [5b] came in with a half-inhibitory concentration (IC50) of 5.2 nM. The IC50 values of the last two molecules are within 1.5-fold of each other.

The molecule `O=C(c1cccc(Cc2n[nH]c(=O)c3c2CCCC3)c1)N1CCC(Oc2ccc(Cl)cc2)CC1` [5c] registered an IC50 of 4.1 nM. This IC50 and that of the molecule before are within 1.5-fold of each other.

`O=C(c1cccc(Cc2n[nH]c(=O)c3c2CCCC3)c1)N1CCN(C(=O)C2CCCO2)CC1` (stereo not shown) [5d] registered a concentration for half-maximal inhibition (IC50) of 3.5 nM. The figure for `CN(C)C1CCN(C(=O)c2cccc(Cc3n[nH]c(=O)c4c3CCCC4)c2)CC1` [5e] is 7.3 nM; for `O=C(c1cccc(Cc2n[nH]c(=O)c3c2CCCC3)c1)N1CCN(c2cccnc2)CC1` [5f] it is 5.5 nM; for `O=C(c1cccc(Cc2n[nH]c(=O)c3c2CCCC3)c1)N1CCN(CCO)CC1` [5g] it is 18 nM. To `O=C(c1cccc(Cc2n[nH]c(=O)c3c2CCCC3)c1)N1CCNCC1` [5h] belongs 5.8 nM; to `O=C(c1cccc(Cc2n[nH]c(=O)c3c2CCCC3)c1)N1CCN(c2ccccn2)CC1` [5i], 3 nM. To `O=C(c1cccc(Cc2n[nH]c(=O)c3c2CCCC3)c1)N1CCC(OC2CCCC2)CC1` [5k] belongs 5 nM. `CC(C)(C)OC1CCN(C(=O)c2cccc(Cc3n[nH]c(=O)c4c3CCCC4)c2)CC1` [5l] showed a half-inhibitory concentration (IC50) of 6 nM.

For the molecule `O=C(c1cc(Cc2n[nH]c(=O)c3c2CCCC3)ccc1F)N1CCN(C(=O)C2CC2)CC1` [10a], 2.9 nM corresponded to half-maximal inhibition (IC50).

Consider `O=C(c1cc(Cc2n[nH]c(=O)c3c2CCCC3)ccc1F)N1CCN(c2cccc(C(F)(F)F)n2)CC1` [10ab], for which it took 4 nM to reach half-maximal inhibition (IC50). The figure for `O=C(c1cc(Cc2n[nH]c(=O)c3c2CCCC3)ccc1F)N1CCN(c2ncncn2)CC1` [10ac] is 6 nM; for `Cc1cccnc1N1CCN(C(=O)c2cc(Cc3n[nH]c(=O)c4c3CCCC4)ccc2F)CC1` [10ad] it is 3 nM; for `Cc1ccnc(N2CCN(C(=O)c3cc(Cc4n[nH]c(=O)c5c4CCCC5)ccc3F)CC2)c1` [10ae] it is 6 nM. To `N#Cc1cccnc1N1CCN(C(=O)c2cc(Cc3n[nH]c(=O)c4c3CCCC4)ccc2F)CC1` [10af] belongs 3 nM; to `COCCN1CCN(C(=O)c2cc(Cc3n[nH]c(=O)c4c3CCCC4)ccc2F)CC1` [10b], 7.3 nM; to `O=C(c1cc(Cc2n[nH]c(=O)c3c2CCCC3)ccc1F)N1CCN(c2ncccn2)CC1` [10c], 2.7 nM. `O=C(c1cc(Cc2n[nH]c(=O)c3c2CCCC3)ccc1F)N1CCC(N(C2CC2)S(=O)(=O)c2ccc(Cl)cc2)CC1` [10d] showed a half-maximal inhibitory concentration (IC50) of 3.3 nM. `COC1CCN(C(=O)c2cc(Cc3n[nH]c(=O)c4c3CCCC4)ccc2F)CC1` [10e] had an IC50 of 5.3 nM.

Molecule `O=C(c1cc(Cc2n[nH]c(=O)c3c2CCCC3)ccc1F)N1CCC(Oc2ccc(Cl)cc2)CC1` [10f] showed a half-maximal inhibitory concentration (IC50) of 3.2 nM.

Molecule `O=C(c1cc(Cc2n[nH]c(=O)c3c2CCCC3)ccc1F)N1CCN(C(=O)C2CCCO2)CC1` (stereo not shown) [10g] had an IC50 of 2.2 nM.

In turn, `O=C(c1cc(Cc2n[nH]c(=O)c3c2CCCC3)ccc1F)N1CCC(N2CCCC2)CC1` [10h] came in with an IC50 of 4.6 nM. Regarding `CN(C)C1CCN(C(=O)c2cc(Cc3n[nH]c(=O)c4c3CCCC4)ccc2F)CC1` [10i], half-maximal inhibition (IC50) was put at 5.8 nM. `O=C(c1cc(Cc2n[nH]c(=O)c3c2CCCC3)ccc1F)N1CCN(c2cccnc2)CC1` [10j] came in with an IC50 of 4.2 nM. Molecule `O=C(c1cc(Cc2n[nH]c(=O)c3c2CCCC3)ccc1F)N1CCN(c2ccncc2)CC1` [10k] returned an IC50 of 5.9 nM. To `O=C(c1cc(Cc2n[nH]c(=O)c3c2CCCC3)ccc1F)N1CCNCC1` [10l] belongs 5.4 nM. Molecule `CCS(=O)(=O)N1CCN(C(=O)c2cc(Cc3n[nH]c(=O)c4c3CCCC4)ccc2F)CC1` [10m] had an IC50 of 52 nM. On to `O=C(c1cc(Cc2n[nH]c(=O)c3c2CCCC3)ccc1F)N1CCC(OC2CCCC2)CC1` [10o], for which the 50% inhibitory concentration (IC50) was 4 nM.

`CS(=O)(=O)N1CCN(C(=O)c2cc(Cc3n[nH]c(=O)c4c3CCCC4)ccc2F)CC1` [10r] came in with a concentration for half-maximal inhibition (IC50) of 2 nM.

For the molecule `CC(C)COC1CCN(C(=O)c2cc(Cc3n[nH]c(=O)c4c3CCCC4)ccc2F)CC1` [10s], the half-maximal inhibitory concentration (IC50) amounted to 2 nM. On to `CCCS(=O)(=O)N1CCN(C(=O)c2cc(Cc3n[nH]c(=O)c4c3CCCC4)ccc2F)CC1` [10t], for which the half-maximal inhibitory concentration (IC50) is 3 nM. With `O=C(c1cc(Cc2n[nH]c(=O)c3c2CCCC3)ccc1F)N1CCC(Oc2ccccn2)CC1` [10u], the IC50 is 4 nM.

In the case of `O=C(c1cc(Cc2n[nH]c(=O)c3c2CCCC3)ccc1F)N1CCC(OCC2CC2)CC1` [10v], the IC50 was 4 nM. To `CCOC1CCN(C(=O)c2cc(Cc3n[nH]c(=O)c4c3CCCC4)ccc2F)CC1` [10x] belongs 4 nM; to `O=C(NCc1ccccc1)C1CCN(C(=O)c2cc(Cc3n[nH]c(=O)c4c3CCCC4)ccc2F)CC1` [17a, N-benzyl-1-[2-fluoro-5-[(4-oxo-5,6,7,8-tetrahydro-3H-phthalazin-1-yl)methyl]benzoyl]piperidine-4-carboxamide], 3 nM; to `O=C(NC1CCC1)C1CCN(C(=O)c2cc(Cc3n[nH]c(=O)c4c3CCCC4)ccc2F)CC1` [17b, N-cyclobutyl-1-[2-fluoro-5-[(4-oxo-5,6,7,8-tetrahydro-3H-phthalazin-1-yl)methyl]benzoyl]piperidine-4-carboxamide], 2 nM.

Regarding `O=C(NCC1CC1)C1CCN(C(=O)c2cc(Cc3n[nH]c(=O)c4c3CCCC4)ccc2F)CC1` [17c, N-(cyclopropylmethyl)-1-[2-fluoro-5-[(4-oxo-5,6,7,8-tetrahydro-3H-phthalazin-1-yl)methyl]benzoyl]piperidine-4-carboxamide], the IC50 amounted to 7 nM. The figure for `CC(C)CNC(=O)C1CCN(C(=O)c2cc(Cc3n[nH]c(=O)c4c3CCCC4)ccc2F)CC1` [17d, 1-[2-fluoro-5-[(4-oxo-5,6,7,8-tetrahydro-3H-phthalazin-1-yl)methyl]benzoyl]-N-(2-methylpropyl)piperidine-4-carboxamide] is 6 nM. The figure for `O=C(c1cc(Cc2n[nH]c(=O)c3c2CCCC3)ccc1F)N1CCC(C(=O)N2CCOCC2)CC1` [17e, 4-[[4-fluoro-3-[4-(morpholine-4-carbonyl)piperidine-1-carbonyl]phenyl]methyl]-5,6,7,8-tetrahydro-2H-phthalazin-1-one] is 7 nM; for `CC1CCCCN1C(=O)C1CCN(C(=O)c2cc(Cc3n[nH]c(=O)c4c3CCCC4)ccc2F)CC1` (stereo not shown) [17f, 4-[[4-fluoro-3-[4-(2-methylpiperidine-1-carbonyl)piperidine-1-carbonyl]phenyl]methyl]-5,6,7,8-tetrahydro-2H-phthalazin-1-one] it is 4 nM; for `CN(C)CCN(C)C(=O)C1CCN(C(=O)c2cc(Cc3n[nH]c(=O)c4c3CCCC4)ccc2F)CC1` [17g, N-(2-dimethylaminoethyl)-1-[2-fluoro-5-[(4-oxo-5,6,7,8-tetrahydro-3H-phthalazin-1-yl)methyl]benzoyl]-N-methylpiperidine-4-carboxamide] it is 9 nM.

Take `CN(C1CCN(C(=O)C2CCN(C(=O)c3cc(Cc4n[nH]c(=O)c5c4CCCC5)ccc3F)CC2)CC1)S(=O)(=O)C1CC1` [17h, N-[1-[1-[2-fluoro-5-[(4-oxo-5,6,7,8-tetrahydro-3H-phthalazin-1-yl)methyl]benzoyl]piperidine-4-carbonyl]piperidin-4-yl]-N-methylcyclopropanesulfonamide]: the IC50 was determined as 3 nM. `COCCOC1CCN(C(=O)c2cc(Cc3n[nH]c(=O)c4c3CCCC4)ccc2F)CC1` [18a, 4-(4-Fluoro-3-(4-(2-methoxyethoxy)piperidine-1-carbonyl)benzyl)-5,6,7,8-tetrahydrophthalazin-1(2H)-one]: inhibition was half-maximal at 5 nM (IC50). The figure for `COc1ccc(OC2CCN(C(=O)c3cc(Cc4n[nH]c(=O)c5c4CCCC5)ccc3F)CC2)cc1` [18b, 4-(4-fluoro-3-(4-(4-methoxyphenoxy)piperidine-1-carbonyl)benzyl)-5,6,7,8-tetrahydrophthalazin-1(2H)-one] is 5 nM; for `COc1ccccc1OC1CCN(C(=O)c2cc(Cc3n[nH]c(=O)c4c3CCCC4)ccc2F)CC1` [18d, 4-(4-fluoro-3-(4-(2-methoxyphenoxy)piperidine-1-carbonyl)benzyl)-5,6,7,8-tetrahydrophthalazin-1(2H)-one] it is 2 nM.

`CCCOC1CCN(C(=O)c2cc(Cc3n[nH]c(=O)c4c3CCCC4)ccc2F)CC1` [18e, 4-(4-fluoro-3-(4-propoxypiperidine-1-carbonyl)benzyl)-5,6,7,8-tetrahydrophthalazin-1(2H)-one] yielded an IC50 of 3 nM. For the molecule `CN(C1CCN(C(=O)c2cc(Cc3n[nH]c(=O)c4c3CCCC4)ccc2F)CC1)S(=O)(=O)C1CC1` [compound 14, N-(1-(2-fluoro-5-((4-oxo-3,4,5,6,7,8-hexahydrophthalazin-1-yl)methyl)benzoyl)piperidin-4-yl)-N-methylcyclopropanesulfonamide], it took 5 nM to reach half-maximal inhibition (IC50). On to `O=C(NC1CCN(C(=O)c2cc(Cc3n[nH]c(=O)c4c3CCCC4)ccc2F)CC1)c1ccccc1` [compound 19, N-(1-(2-Fluoro-5-((4-oxo-3,4,5,6,7,8-hexahydrophthalazin-1-yl)methyl)benzoyl)piperidin-4-yl)benzamide], for which the midpoint of inhibition, the IC50, lay at 5 nM. To `CC(C)OC1CCN(C(=O)c2cc(Cc3n[nH]c(=O)c4c3CCCC4)ccc2F)CC1` [compound 20, 4-(4-Fluoro-3-(4-isopropoxypiperidine-1-carbonyl)benzyl)-5,6,7,8-tetrahydrophthalazin-1(2H)-one] belongs 3 nM; to `CC(C)OC1CCN(C(=O)c2cccc(Cc3n[nH]c(=O)c4c3CCCC4)c2)CC1` [compound 21, 4-(3-(4-isopropoxypiperidine-1-carbonyl)benzyl)-5,6,7,8-tetrahydrophthalazin-1(2H)-one], 8 nM.

For the origin of these results see patent US20090023727A1, “PHTHALAZINONE DERIVATIVES” (priority 2007, published 2009).
